PubChem BioAssay AID360 (National Center for Advancing Translational Sciences (NCATS), 2006)
Out of some 48,000 compounds screened, about 550 (1.1%) were called active. Inconclusive results (about 4%) are left out. No stated cut-off is given here; in the data, active means potency below about 15 µM; inconclusive means mostly about 16 µM to 33 µM; inactive means weaker than that. Some of the results follow.

Each compound was assayed against Lysosomal acid glucosylceramidase (Homo sapiens) (UniProt P04062) (assay: Glucocerebrosidase). Conditions: purified enzyme, resorufin glucoside fluorescence (screen aimed at inhibitors), 20 min.
How it was run: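 Compounds titrated against 0.2 nM normal enzyme, 30 uM resorufin beta-D-glucopyranoside substrate, citrate/phosphate buffer with taurocholate and tween-20, pH 5.9. Reaction ran 20 min at room temperature; fluorescence (Ex 548/Em 600) gave AC50.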
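Further: the screen sought inhibitors.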
Potency means the concentration at half of the fitted maximal effect.

UniProt P04062, sequence (P04062 whole entry, looked up): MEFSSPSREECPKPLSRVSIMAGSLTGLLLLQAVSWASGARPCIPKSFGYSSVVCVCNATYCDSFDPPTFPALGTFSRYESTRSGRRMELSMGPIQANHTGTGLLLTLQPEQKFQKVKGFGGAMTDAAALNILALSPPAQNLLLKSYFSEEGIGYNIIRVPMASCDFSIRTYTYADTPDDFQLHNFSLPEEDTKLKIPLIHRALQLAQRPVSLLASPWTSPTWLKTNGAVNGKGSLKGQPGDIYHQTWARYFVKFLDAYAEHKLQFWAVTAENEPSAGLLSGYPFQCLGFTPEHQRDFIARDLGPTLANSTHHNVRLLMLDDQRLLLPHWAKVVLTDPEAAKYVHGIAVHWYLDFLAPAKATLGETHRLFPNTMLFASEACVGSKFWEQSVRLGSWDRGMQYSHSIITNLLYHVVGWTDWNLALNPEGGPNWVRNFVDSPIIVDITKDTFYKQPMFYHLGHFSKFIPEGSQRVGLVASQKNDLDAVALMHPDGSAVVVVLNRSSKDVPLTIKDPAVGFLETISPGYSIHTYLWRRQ

SMILES	Potency
CC(=O)c1cccc(NC(=O)C2CCCN(S(=O)(=O)c3ccc(F)cc3)C2)c1 (centres undefined)	inactive: > 76.9 µM
Cc1ccc(-c2nn3c(=O)c(C)nnc3s2)cc1	inactive: > 76.9 µM
CCCCCCS(=O)[C@H]1CS(=O)(=O)C[C@@H]1S(=O)CCCCCC (some centres undefined)	inactive: > 76.9 µM
CCCCOCCCNC1=NCCCCC1	inactive: > 76.9 µM
CCOc1ccc2[nH]c(=O)c(CN(CCO)C(=O)c3ccc(Br)cc3)cc2c1	inactive: > 76.9 µM
COc1cc(CN2CCN(c3cccc(Cl)c3)CC2)cc(OC)c1OC	inactive: > 76.9 µM
COCCn1cc(C(=O)c2ccccc2OCC(=O)Nc2cc(C)on2)cc(C#N)c1=O	inactive: > 76.9 µM
O=C(CCCCCNc1nc(=S)[nH]c2ccccc12)N1CCN(c2ccccn2)CC1	active: 5.73 µM
Cc1oc(-c2ccc(Cl)cc2)nc1CN1CCC(C(=O)NCCCN2CCOCC2)CC1	inactive: > 76.9 µM
COc1ccc(C(=O)OC(C)CN2CCOCC2)cc1OC (centres undefined)	inactive: > 76.9 µM
Clc1cc(Cl)c(OCc2nc(-c3ccccn3)no2)cc1Cl	inactive: > 76.9 µM
CCCCN(CC)C(=O)CSc1cc(=O)n(C)c2ccccc12	inactive: > 76.9 µM
CC(C)N(Cc1nc(-c2ccccc2)no1)C(=O)CSc1ccccc1	inactive
CN(c1cccc(NC(=O)Cc2ccccc2)c1)S(C)(=O)=O	inactive: > 76.9 µM
CCc1nc2oc3ccccc3c(=O)c2c(=O)n1CCOC	inactive: > 76.9 µM
OCc1cn(-c2ccccc2)nc1-c1ccc2c(c1)OCCO2	inactive: > 76.9 µM
Nc1[nH]nc2nc(N3CCCC3)nc(-c3ccccc3)c12	inactive: > 76.9 µM
O=C(c1ccc(Cl)cc1)N1CCC(c2nc(-c3cccs3)no2)CC1	inactive: > 76.9 µM
O=c1nc(N2CCCCC2)nc2n1CCO2	inactive: > 76.9 µM
CCN1CCn2c1nc(N1CCCCC1)nc2=O	inactive: > 76.9 µM
CCN1CCN(c2nc3c(c(=O)n(C)c(=O)n3C)n2CCSc2nccc(C)n2)CC1	inactive: > 76.9 µM
Brc1ccc(-c2nnc3n2-c2ccccc2CC3)cc1	inactive: > 76.9 µM
COc1ccc2c(c1OC)CN(C)CCc1cc3c(cc1C(O)C2)OCO3 (centres undefined)	inactive: > 76.9 µM
NS(=O)(=O)c1cccc2cccnc12	inactive: > 76.9 µM

SMILES	Potency
Cc1nc2nc(COc3ccccc3)[nH]n2c(=O)c1C	inactive: > 76.9 µM
CN(C)C(=O)N1CCCC(C(=O)NCc2ccccc2Cl)C1 (centres undefined)	inactive: > 76.9 µM
COc1cccc(N2C(=O)CC(N3CCC(c4nc5ccccc5[nH]4)CC3)C2=O)c1 (centres undefined)	inactive: > 76.9 µM
CCN(CC)S(=O)(=O)c1ccc(-c2nnc(SCC(=O)c3ccc(OC)cc3)o2)cc1	inactive: > 76.9 µM
O=C(Cn1nnc(-c2ccc(Cl)cc2)n1)NC1CC2CCC1C2 (centres undefined)	inactive: > 76.9 µM
COCCSc1nnc(NC(=O)COC)s1	inactive: > 76.9 µM
O=C(Nc1ccc2nc(-c3ccccc3)oc2c1)c1ccco1	inactive: > 76.9 µM
Cc1nn(-c2ccccn2)c2c1C(c1ccsc1)C1=C(CCCC1=O)N2 (centres undefined)	inactive: > 76.9 µM
CCCc1nnc(SCC(=O)Nc2ccc(OC)cc2)n1N	inactive: > 76.9 µM
C=CCN=C(NC#N)SCC(=O)c1cccc(OC)c1	inactive: > 76.9 µM
CC(C)CCOc1cccc(OCC(=O)N(C)C2CCS(=O)(=O)C2)c1 (centres undefined)	inactive: > 76.9 µM
CCCNS(=O)(=O)c1ccc(CCC(=O)N2CCOCC2)cc1	inactive: > 76.9 µM
CCCn1c(SCC(=O)Nc2cccc(NC(C)=O)c2)nnc1C(C)C	inactive: > 76.9 µM
CC1(C)Oc2ccc(C(=O)NC3CCCC3)cc2N(CC(=O)NC2CCCC2)C1=O	inactive: > 76.9 µM
Cc1ccc(SCc2nc(-c3ccncc3)no2)cc1	inactive: > 76.9 µM
CCOCC(=O)Nc1ccc(F)c(F)c1	inactive: > 76.9 µM
O=C(CCCCn1c(=O)[nH]c2ccccc2c1=O)NCc1ccc2c(c1)OCO2	inactive: > 76.9 µM
O=C(O)[C@@H]1CSC2(CCSC2)N1 (some centres undefined)	inactive: > 76.9 µM
CCOc1ccc2nc(NC(=O)CN3CCN(c4ccccn4)CC3)sc2c1	inactive: > 76.9 µM
Cc1cc(=O)[nH]c(SCC(N)=O)c1C#N	inactive: > 76.9 µM
CCOC(=O)C1CCCN(S(=O)(=O)c2cccc3cccnc23)C1 (centres undefined)	inactive: > 76.9 µM
CC1=Nc2ccccc2N=C(NC(=O)CSc2nnnn2-c2ccccc2)C1c1ccccc1 (centres undefined)	inactive: > 76.9 µM
COc1cc2c(cc1OC)-c1cc(NCc3ccccn3)nc(=O)n1CC2	inactive: > 76.9 µM
COc1cc(C(=O)NCc2nnc(SCC(=O)N3CCC(C)CC3)o2)cc(OC)c1OC	inactive: > 76.9 µM

SMILES	Potency
COCCN(CCOC)C(=O)c1c[nH]c2ccc(S(=O)(=O)N(C)c3ccc(F)cc3)cc2c1=O	inactive: > 76.9 µM
CSCC[C@H](NC(=O)OC(C)(C)C)c1nnc(SCC(=O)Nc2ccc(C)cc2C)o1	inactive: > 76.9 µM
CCOC(=O)c1cc(NC(=O)SCC(=O)O)c(C)nc1C	inactive: > 76.9 µM
CC1=C(C(=O)N2CCc3ccccc32)C2(CCC(C)CC2)OC1=O (centres undefined)	inactive: > 76.9 µM
CS(=O)(=O)N1CCN(c2nc3ccccc3s2)CC1	inactive: > 76.9 µM
COc1ccc(CN2CC(C(=O)NCCCN3CCOCC3)CC2=O)cc1 (centres undefined)	inactive: > 76.9 µM
CCOc1ccccc1Nc1nc2ccccc2[nH]1	inactive: > 76.9 µM
CCOC(=O)CSc1nnc(CNc2ccc(F)cc2)o1	inactive: > 76.9 µM
O=C(CN1CCOCC1)Nc1ncc(Br)cc1Br	inactive: > 76.9 µM
Clc1ccc2c(c1)C1OCCC1C(c1ccco1)N2 (centres undefined)	inactive: > 76.9 µM
CCOC(=O)Cn1nc(-c2ccccc2)nc1-c1ccccc1	inactive: > 76.9 µM
COc1ccc(OC)c(N=Cc2c(O)[nH]c3ccccc23)c1	inactive: > 76.9 µM
O=C(O)c1cccc2[nH]c(C(F)(F)F)nc12	inactive: > 76.9 µM
O=C(NCc1ccco1)c1cc(-c2ccco2)on1	inactive: > 76.9 µM
CCC(=O)Nc1ccccc1N1CCN(S(C)(=O)=O)CC1	inactive: > 76.9 µM
COc1ccc(NC(=O)c2ccco2)cc1N	inactive: > 76.9 µM
Cc1nnc(SCC(C)C)[nH]c1=O	inactive: > 76.9 µM
CS(=O)(=O)Nc1ccc(C(=O)NCc2ccccn2)cc1	inactive: > 76.9 µM
C=CCn1c(COc2ccccc2)nnc1SCC(=O)Nc1ccc(S(N)(=O)=O)cc1	inactive: > 76.9 µM
COc1ccc(CCNC(=O)C2CCCN(c3nn4c(=O)cc(C)nc4s3)C2)cc1OC (centres undefined)	inactive: > 76.9 µM
Nc1c(C(=O)NCc2ccco2)nnn1Cc1ccccc1	inactive: > 76.9 µM
CN(C)c1nc(Oc2ccc(=O)[nH]n2)nc(N2CCCCC2)n1	inactive: > 76.9 µM
Fc1ccc(-c2cc3nc(-c4ccccc4)cc(N4CCOCC4)n3n2)cc1	inactive: > 76.9 µM
COC(=O)COc1ccc(S(=O)(=O)Nc2ccc(C(N)=O)cc2)cc1	inactive: > 76.9 µM

SMILES	Potency
CCn1cc(C(=O)O)c(=O)c2cnc(N3CCN(C(=O)Nc4ccccc4)CC3)nc21	inactive: > 76.9 µM
O=C1Nc2ccc(NS(=O)(=O)c3cccs3)c3cccc1c23	inactive: > 76.9 µM
CCCc1nnc(NC(=O)CCN2C(=O)c3ccccc3C2=O)s1	inactive: > 76.9 µM
Cc1nnc(SCC(=O)NCCN2C(=O)CSC2=O)s1	inactive: > 76.9 µM
CCN1CCN(C(=O)CCCCCn2c(=O)[nH]c3cc(C(=O)OC)ccc3c2=O)CC1	inactive: > 76.9 µM
O=C(CN1C(=O)CSC1=O)c1ccccc1	inactive: > 76.9 µM
COc1ccc(C(=O)N2CCN(S(=O)(=O)c3ccccc3)CC2)c(OC)c1	inactive: > 76.9 µM
COc1ccc(CCn2c(N3CCN(Cc4ccccc4)CC3)nc3c2c(=O)[nH]c(=O)n3C)cc1	inactive: > 76.9 µM
CCOc1ccccc1C1CC(=O)NC(SCC)=C1C#N (centres undefined)	inactive: > 76.9 µM
CCOCCCNc1nc2ccccc2[nH]1	inactive: > 76.9 µM
COc1ccc(OC)c(S(=O)(=O)NCc2cccnc2)c1	inactive: > 76.9 µM
CC(=O)Nc1ccc(OCC(O)Cn2nc(C)c(C(C)=O)c2C)cc1 (centres undefined)	inactive: > 76.9 µM
CCOC(=O)c1ccc(NC(=O)C(C)NS(=O)(=O)c2ccc(OC)cc2)cc1 (centres undefined)	inactive: > 76.9 µM
Cc1ccccc1C(=O)N1CCN(c2nc(N3CCOCC3)nc(N3CCOCC3)n2)CC1	inactive: > 76.9 µM
CCOCCCNC(=O)CSc1ccccc1	inactive: > 76.9 µM
O=C(O)CCN(CCC(=O)O)c1ccccc1	inactive: > 76.9 µM
COC(=O)c1ccc(C(=O)OC)c(NC(=O)CN2CCN(c3ccccc3OC)CC2)c1	inactive: > 76.9 µM
Nc1ccc(-c2cnc(-c3ccc(N)cc3)nc2)cc1	inactive: > 76.9 µM
Nc1nc(-c2ccc(Cl)cc2)nn1C(=O)c1cccnc1	inactive: > 76.9 µM
Nc1ccc(S(=O)(=O)c2cccc(N)c2)cc1	inactive: > 76.9 µM
O=C(Nc1ccc2c(c1)CCC2)C1CCN(c2c3c(nc4ncnn24)CCC3)CC1	inactive: > 76.9 µM
COC(=O)c1ccsc1NC(=O)CSc1nnnn1-c1ccccc1SC	inactive: > 76.9 µM
